Measurements from PubChem BioAssay (NCI).
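Five concentrations, 48 hours, 96-well plates. Abbreviation: GI50, concentration required for 50% inhibition of growth. TGI marks complete inhibition of growth.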

Test system: NCI-H322M lung
Assay: inhibition of tumour cell growth, NCI panel, 48 h

Compound | GI50 [µM] | TGI [µM]
Cn1ncc(C#N)c1-c1ccc2c(c1)CN([C@H](CN)Cc1cccc(F)c1)C2=O | 16.2 | > 100
COC(=O)C1(C(=O)OC)N=C(C)OC1c1ccccc1O (stereo not drawn) | – | > 100
CC(=Nc1ccc(N(C)C)cc1)c1ccccc1 | – | > 100
CNC(=O)C(C)Oc1ccc(OCC2CCCCC2)cc1 (stereo not drawn) | – | > 100
O/N=C(\CC(O)(C(F)(F)F)C(F)(F)F)c1cccs1 | – | > 10
Cc1ccc(N)cc1[As]=[As]c1cc(N)ccc1C (stereo not drawn) | 2.54 | 5.81
Cc1cc(C)c(NS(=O)c2cccc(C(F)(F)F)c2)c(C)c1 (stereo not drawn) | – | > 100
COc1ccc(Oc2nc3cc(N)cc(N)c3nc2-c2ccccc2)cc1 | > 100 | > 100
Cc1ccc2c(c1)-c1c3c(nn1C)-c1ccccc1SC3O2 (stereo not drawn) | – | > 100
COc1cc(OCc2ccccc2)c2c(CCC(=O)O)cc(=O)oc2c1 (tested in a mixture with another compound) | – | > 100
Cc1ccc(Sc2ccccc2C23OC(C)(C4C(=O)N(c5ccccc5)C(=O)C42)N(C)C3=O)cc1 (stereo not drawn) | – | > 100
Cn1c(CCCC(=O)O)nc2cc(N(CCCl)CCCl)ccc21 | > 92.1 | > 100
CC1(C)c2ccccc2N2C(c3ccccc3)=NOC21C (stereo not drawn) | – | > 100
CCOC(=O)c1ncn(CCc2ccc(Cl)cc2)c1C | – | > 100
[N-]=[N+]=NC1C(O)C(CO)OC1n1ccc(N)nc1=O (stereo not drawn) | – | > 539
C=C(C)C1CC[C@@](C)(O)[C@H](C#N)C1 (stereo partly drawn) | – | > 100
O=C(/C=C/c1ccccc1)c1cccc2ccccc12 | 2.32 | 6.14
C=CCCCCCCCCCP(=O)(c1ccccc1)c1ccc2c(c1)OCCOCCOCCOCCO2 (stereo not drawn) | – | 28.7
CCCC(=O)OCC1OC(n2cc(F)c(=O)[nH]c2=O)CC1O (stereo not drawn) | – | > 10
Cc1ccc(N(C=O)c2c([N+](=O)[O-])cc([N+](=O)[O-])c3c2=[N+]([O-])CN=3)cc1 | – | > 100
CN(C)NC(=O)/C(=C/c1ccc(Cl)cc1)NC(=O)c1ccccc1 | – | > 100
C[C@@H](Nc1cc(F)cc(F)c1)c1cc(C(=O)N(C)C)cc2c(=O)cc(N3CCOCC3)oc12 | 3.5 | > 69

Compound | GI50 [µM] | TGI [µM]
CCN(CC)C1Oc2cc3c(cc2C(c2cc(OC)c(O)c(OC)c2)C1C)OCO3 (stereo not drawn) | – | 98.7
C=C1C(=O)O[C@H](c2ccoc2)C[C@@H]1[C@@]1(C)CCCC2(C)C(=O)OCC21 (stereo partly drawn) | – | > 100
Cc1ccccc1NC(=O)Cc1nc2ccccc2s1 | – | 37.5
CCCCN=NNc1cn(C2OC(CO)C(O)C2O)c(=O)[nH]c1=O (stereo not drawn) | – | > 100
N#C/C(=C\c1cc(O)c(O)c(O)c1)C(N)=O | – | > 100
O=C1C=C(c2ccccc2)OC1C1Sc2ccccc2NC1=O (stereo not drawn) | – | > 100
Cc1ccc2[nH]c3c(c(=O)n(C)c(=O)n3C)c2c1 | – | > 100
O=C(Sc1c(-c2ccccc2)c(=O)n(-c2ccccc2)c(=S)n1-c1ccccc1)c1ccccc1 | – | > 100
O=C=C=P(c1ccccc1)(c1ccccc1)c1ccccc1 | – | > 100
CN(C)c1ccc(C=Nc2ccc(-c3nc4ccccc4s3)cc2)cc1 | – | > 100
O=C(NC1CC1)c1c(O)[nH]c(=S)[nH]c1=O | – | > 100
Clc1sc(Cl)c2c1[C@H](Cl)C[C@@H]2Cl | – | > 100
CC1(C)CC[C@]2(C(=O)O)CC[C@]3(C)C(=CCC4=C5C[C@H](O)[C@H](O)[C@@](C)(CO)[C@@]5(C)CC[C@]43C)[C@@H]2C1 | – | > 100
C=C1c2nc3ccccc3n2C=C(c2ccccc2)N1c1ccc(Cl)cc1 | – | > 100
CC[C@@H](C)/C=C(C)/C=C/C(=O)c1c(O)c(-c2ccc(OC(=O)[C@@]34CC[C@@](C)(C(=O)O3)C4(C)C)cc2)cn(O)c1=O | 1.19 | 15.3
O=C(Nc1nc(-c2ccc(Cl)cc2)cs1)c1cc(O)c(O)c(O)c1 | 519 | 3920
O=c1[nH]c2c(c(=O)[nH]1)SC(c1ccccc1)C2 (stereo not drawn) | – | > 100
CC1(C)C(N2CCOCC2)CS1(=O)=O (stereo not drawn) | – | > 10
COc1cccc2c1C(=O)c1c(O)c3c(c(O)c1C2=O)C[C@@](O)(C(=O)CO)CC3OC1CC(N)C(OC2CCCCO2)C(C)O1 (stereo partly drawn) | – | 16.9
COc1cccc(Nc2ncnc3cc(NC(=O)CCl)ccc23)c1 | 2.29 | 5.72
N#C/C(=C\c1c(O)cc(O)cc1O)C(N)=O | – | > 100
COC(=O)c1c(O)ccc(O)c1C(C(C)=O)C(C)=O | – | > 100
